Measured values: the supplement of paper PMC5655136
Read counts after selection give these values, which scatter widely.

The sequences below were run on NB7 (assay: fold depletion of shRNA, plasmid library share / infected cells without Dox share (9 days) (ratio); higher = more depleted after infection (more toxic, leaky expression from a Tet-inducible vector; NB7 is a neuroblastoma line without caspase-8)). Conditions: shRNA pool: CD95L ORF + CD95L 3'UTR + Venus libraries.
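Also: shRNA barcodes quantified by deep sequencing of PCR amplicons from cellular DNA, counts expressed as percent of each subpool, ratio averaged over two biological duplicates.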

Sequence | fold depletion of shRNA
GCTGTTCACCGGGGTGGTGCC | 0.953
GCTTAAAAATCATTGATTGTC | 0.604
GCTTGCATAATAAGCTAAAGA | 1.05
GCTTTCTGGAGTGAAGTATAA | 1.7
GGAAAAGGAAGACTAGAGGCT | 0.59
GGAAAATATGGGTTGCATTTG | 0.403
GGAAAGTGGCCCATTTAACAG | 0.507
GGAACCACAGCACAGGCCTGT | 1.2
GGAACTCTAAGTATCCCCAGG | 1.84
GGAAGAACATAGAACTCTGGG | 0.621
GGAAGACACCTATGGAATTGT | 1.42
GGAAGATGATGAGCTACTGCA | 2.08
GGAATATGACGGAAGAACATA | 1.23
GGAATGGGAAGACACCTATGG | 0.809
GGAATTGTCCTGCTTTCTGGA | 0.912
GGACACCTTTTAACTCACCTC | 6.03
GGACGACGGCAACTACAAGAC | 0.451
GGACGGCAACATCCTGGGGCA | 0.922
GGACGGCGACGTAAACGGCCA | 0.415
GGACGGCGGCGTGCAGCTCGC | 0.451
GGACTCATTTCATTCCTAACA | 2.91
GGACTGTCTTTCAGATACATG | 1.42
GGAGAAGCAAATAGGCCACCC | 1.91
GGAGAAGCATGAAAAAGCAGC | 2.37
GGAGCGCACCATCTTCTTCAA | 0.914
GGAGCTGTTCACCGGGGTGGT | 0.488
GGAGGAATATGACGGAAGAAC | 2.67
GGAGGACGGCAACATCCTGGG | 0.919
GGAGGCCACCACCACCACCGC | 11.6
GGAGTACAACTACAACAGCCA | 3.46

Same assay, conditions: shRNA pool: CD95 ORF + CD95 3'UTR + Venus libraries

Sequence | fold depletion of shRNA
GCTGTTCACCGGGGTGGTGCC | 1
GCTTAGAAGTGGAAATAAACT | 0.887
GCTTATACATAGCAATGGTAA | 0.995
GCTTCGCCCGCTACCCCGACC | 1.61
GCTTGGTTTTTTACTGGGTAC | 2.15
GCTTTGCCACCTCTCCATTTT | 1.08
GCTTTGTCTTCTTCTTTTGCC | 1.95
GCTTTGTGACATGTCATGAAC | 2.93
GGAAAACAAACTTCATCAAGA | 1.33
GGAAAACCAAGGTTCTCATGA | 1.84
GGAAAGAAAGAAGCGTATGAC | 0.658
GGAAAGCTAGGGACTGCACAG | 0.684
GGAAATAAACTGCACCCGGAC | 0.758
GGAAATATCACCAAAAAATAC | 0.99
GGAACCACCTAAAGAACTTCC | 2.41
GGAAGACTGTTACTACAGTTG | 3.89
GGAAGGAGTACACAGACAAAG | 1.02
GGAAGGCCTGCATCATGATGG | 1.27
GGAATCATCAAGGAATGCACA | 0.887

Sequence | fold depletion of shRNA
GGAATGCACACTCACCAGCAA | 0.348
GGAATTATAAAATATAGGTAA | 0.819
GGAATTGAGGAAGACTGTTAC | 0.537
GGAATTGCTCTTGTCATACCC | 0.74
GGACATGGCTTAGAAGTGGAA | 1.79
GGACATTACTAGTGACTCAGA | 1.17
GGACCCAGAATACCAAGTGCA | 1.53
GGACCCTCCTACCTCTGGTTC | 3.11
GGACGACGGCAACTACAAGAC | 0.633
GGACGGCAACATCCTGGGGCA | 1.04
GGACGGCGGCGTGCAGCTCGC | 0.601
GGACTGCACAGTCAATGGGGA | 0.464
GGAGAGTATTACTAGAGCTTT | 0.955
GGAGATACTAACTGCTCTCAG | 2.9
GGAGCGCACCATCTTCTTCAA | 1.62
GGAGCTGTTCACCGGGGTGGT | 1.1
GGAGGACGGCAACATCCTGGG | 0.699
GGAGTACAACTACAACAGCCA | 1.23
GGAGTCATGACACTAAGTCAA | 2.72
